# In PubChem BioAssay AID720584 (National Center for Advancing Translational Sciences (NCATS), 2013):
# The shares of active, inactive and inconclusive entries below differ from those in the screen. Potencies of inconclusive entries are left out as doubtful fits. The source made the active and inactive calls. Calls follow the shape of the dose curve; as a rule, active = well fitted inhibition curve with a large enough effect; inconclusive = small, poorly fitted or top-dose-only effect; inactive = flat fitted curve, though single readings scatter.
# Test system: Trypanosoma brucei pyruvate kinase (TbPYK)
# Assay: qHTS of Trypanosoma Brucei Inhibitors: Orthogonal Assay for Cherry-picked Compounds; also: nearly all actives have a fitted effect of over 75% in size
# Conditions: recombinant TbPYK, ADP-Glo luminescence, 60 min; activity change, negative = inhibition: at 76.9 µM (top of the series)
# How it was run: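 ADP-Glo luminescence end-point, reporting ADP substrate left after TbPYK reaction. ADP 130 uM final; 60 min RT; buffer 50 mM TEA pH 7.2, 100 mM KCl, 10 mM MgCl2, 0.05% BSA, 0.01% Tween-20.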
# % is scaled to controls: 0 for no effect and ±100 for the full control effect; potency is read from the fitted curve at half-maximal effect; tags tell the direction and shape of the fitted curve.
SMILES,Potency,"activity change, negative = inhibition"
Oc1c(CN2CCOCC2)cc(CN2CCOCC2)c(O)c1CN1CCOCC1,"inconclusive [inhibitor, full curve]",–
CCOC(=O)c1ccc(N2CSC3=C(C#N)C(c4cccs4)CC(=O)N3C2)cc1 (configuration not stated),"inconclusive [inhibitor, single point]",–
CCCC(=O)NC1=C(Cl)C(=O)c2ccccc2C1=O,active: 7.08 µM,–
NC(=O)c1ccc(N2CCN(c3ccc(O)cc3)CC2)c([N+](=O)[O-])c1,"inconclusive [inhibitor, partial curve]",–
Cc1cccc(N2C(=O)C=CC2=O)c1,"inconclusive [inhibitor, single point]",–
CC1=C(C#N)C(=O)NC(=O)/C1=C/c1ccc(-c2ccc(S(N)(=O)=O)cc2)o1,–,inactive: -22.2%
CCOC(=O)c1cnc2ccc(OCC)cc2c1NCc1cccnc1,–,inactive: -3.41%
Cc1nonc1C(=O)N/N=C/c1ccc(O)c(O)c1,–,inactive: 4.34%
COCCN=C1NN=C(c2ccc(C)c([N+](=O)[O-])c2)CS1,"inconclusive [inhibitor, partial curve]",–
Cc1ccc2sc(NNC(=O)C3COc4ccccc4O3)nc2c1C (configuration not stated),"inconclusive [inhibitor, single point]",–
O=C(N/N=C/c1ccccc1)c1[nH]ncc1Br,–,inactive: 0.718%
Oc1cc2c(cc1O)[C@H]1c3ccc(O)c(O)c3OC[C@@]1(O)C2,"inconclusive [inhibitor, full curve]",–
COc1ccc(C=C2CCc3ccccc3C2=O)cc1,–,inactive: 12.3%
O=C(c1ccc2ncsc2c1)N1CCCCC1,"inconclusive [inhibitor, single point]",–
Cc1ccc(-c2csc3ncn(-n4c(C)ccc4C)c(=O)c23)o1,"inconclusive [inhibitor, single point]",–
CCN(CC)c1ccc2nc3ccccc3[n+](CC)c2c1,–,inactive: -1.09%
CC(Oc1ccccc1Cl)C(=O)Nc1ccc(S(=O)(=O)N2CCN(C)CC2)cc1 (configuration not stated),"inconclusive [inhibitor, partial curve]",–
O=C(O)CCc1ccc(-c2ccc(Cl)cc2)o1,"inconclusive [inhibitor, single point]",–
COc1ccc(S(=O)(=O)N2CCCC(C(=O)Nc3cccnc3)C2)cc1Cl (configuration not stated),–,inactive: -11.2%

SMILES,Potency,"activity change, negative = inhibition"
CC(C)c1ccc(C2CC(=O)N3CN(Cc4ccco4)CSC3=C2C#N)cc1 (configuration not stated),active: 0.447 µM,–
C[C@@H]1CCCCO[C@H](CN(C)Cc2ccc(Cl)c(Cl)c2)[C@@H](C)CN([C@H](C)CO)C(=O)c2cc(N(C)C)ccc2O1,active: 6.31 µM,–
CC(=O)Nc1ccc(S(=O)(=O)NNc2cccc(C)c2)cc1,active: 17.8 µM,–
CN1C(=CC=C2C=C(I)C(=O)C(I)=C2)C(C)(C)c2ccccc21,–,inactive: 5.51%
CCOc1ccc(-c2c(=O)n(O)c3ccccc3[n+]2[O-])cc1,–,inactive: -14.6%
Cn1c(N=Nc2ccc(N3CCOCC3)cc2)[n+](C)c2ccccc21,–,inactive: 12.8%
CCCCC1(C)OC(=O)C(=Cc2ccc(-c3ccc(Cl)c(C(=O)O)c3)o2)C(=O)O1 (configuration not stated),active: 31.6 µM,–
CCN(CC)c1ccc(C(=C2C=CC(=[N+](CC)CC)C=C2)c2ccc(N(CC)CC)cc2)cc1,–,inactive: 14.2%
Cc1ccc(S(=O)(=O)N(C(=O)c2ccco2)c2cc3sc(=O)oc3c3ccccc23)cc1,"inconclusive [inhibitor, single point]",–
CC1(C)CC(=O)C(C(c2ccco2)C2C(=O)CC(C)(C)CC2=O)C(=O)C1,"inconclusive [inhibitor, partial curve]",–
O=c1ccc2nc3ccccc3sc-2c1,"inconclusive [inhibitor, partial curve]",–
COC(=O)c1cc(-c2ccc(C)o2)nc2ccccc12,"inconclusive [inhibitor, single point]",–
O=S(=O)(NCCC(c1ccc(F)cc1)c1ccco1)c1ccccc1 (configuration not stated),–,inactive: -5.26%
Oc1ccc(/C=N/Nc2nccnc2Cl)cc1,–,inactive: 13.3%
Cc1ccc(/C=C/C(=O)NCCc2ccccc2)o1,"inconclusive [inhibitor, partial curve, poor fit]",–
Cc1cc(C)c2c(c1)-c1c(ssc1=S)C(C)(C)N2C(=O)CSc1nncn1C,active: 15.8 µM,–
Cc1cc(Br)ccc1NC(=O)CN(C)C(=O)Cn1c(=O)cnc2ccccc21,"inconclusive [inhibitor, single point]",–
C=Cc1ccc2c(c1)N(C)C(=C)S2,active: 3.98 µM,–
